Our source for the TetR repression strength values is a collection of fitness landscapes (doi:10.1038/s41467-024-54723-y).

The full ranking holds about 18,000 sequences; the median of “TetR repression strength (sort-seq, GFP reporter)” is about 0.23, and the highest 2% start at about 0.68. Some of the results follow.

This experiment deals with TetR (class B, Tn10) (UniProt P04483). Put plainly: TetR repression strength (sort-seq, GFP reporter) (relative to tetO2 = 1); higher = stronger repression. As to conditions: E. coli. In outline: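 Repression strength was calculated by subtracting the read-weighted mean bin from the top bin index plus one and dividing by the unaltered operator's value. The plasmid library was low-copy in E. coli SIG10-MAX, with eight randomized operator positions between a constitutive promoter and sfGFP and constitutive TetR. Cultures grew 5 h at 37 °C in LB containing 50 µg/mL chloramphenicol before 10^6 cells were sorted by FACS into 13 fluorescence bins, each sequenced on Illumina. Three independent transformations were averaged for members having ≥30 reads in all replicates and a CV ≤0.5.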
UniProt P04483, sequence (P04483 whole entry): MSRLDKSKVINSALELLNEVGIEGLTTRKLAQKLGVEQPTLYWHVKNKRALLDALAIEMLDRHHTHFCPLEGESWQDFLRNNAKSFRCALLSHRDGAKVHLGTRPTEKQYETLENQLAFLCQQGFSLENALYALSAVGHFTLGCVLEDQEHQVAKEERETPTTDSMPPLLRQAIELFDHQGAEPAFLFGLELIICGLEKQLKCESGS
For TCCCTGGAAGTCCCAGAGA, the TetR repression strength turned out to be 0.0672.

TCCCTCAGAGTAGAGGAGA came in with a TetR repression strength of 0.193.

Turning to TCCCGCGAAGTGAATGAGA, the TetR repression strength was determined as 0.194.

Take TCCCTAATAGTTCTTGAGA: the TetR repression strength stood at 0.104.

Take TCCCATACAGTTATAGAGA: the TetR repression strength stood at 0.226.

Consider TCCCTGAGAGTGTCAGAGA, for which the TetR repression strength turned out to be 0.257.

TCCCATCAAGTATAGGAGA gave a TetR repression strength of 0.00518.

TCCCTTTGAGTCGTAGAGA yielded a TetR repression strength of 0.408.

TCCCTTAAAGTCACGGAGA returned a TetR repression strength of 0.203.

TCCCCGTAAGTGTTAGAGA had a TetR repression strength of 0.236.

Turning to TCCCTCTCAGTTATAGAGA, the TetR repression strength amounted to 0.716.

TCCCAGGTAGTTCGCGAGA had a TetR repression strength of 0.256.

As to TCCCAGATAGTTGAGGAGA, the TetR repression strength worked out at 0.31.

TCCCTGGCAGTGGCAGAGA gave a TetR repression strength of 0.352.

In the case of TCCCAGCTAGTGTAGGAGA, the TetR repression strength was 0.182.

TCCCTTCTAGTGCTAGAGA displayed a TetR repression strength of 0.379.

TCCCGACAAGTGTAGGAGA: the TetR repression strength turned out to be 0.144.

TCCCGTACAGTATTCGAGA came in with a TetR repression strength of 0.109.

Regarding TCCCTATTAGTCATCGAGA, the TetR repression strength turned out to be 0.458.

For the sequence TCCCATAGAGTGGGAGAGA, the TetR repression strength came to 0.153.

TCCCGTTAAGTCTCGGAGA returned a TetR repression strength of 0.225.

TCCCCCAGAGTGGTCGAGA had a TetR repression strength of 0.208.

As to TCCCTGAAAGTGCTCGAGA, the TetR repression strength stood at 0.276.

Turning to TCCCCCGCAGTGCATGAGA, the TetR repression strength was found to be 0.385.

Sequence TCCCGCTCAGTGTTGGAGA came in with a TetR repression strength of 0.0582.

For TCCCGGGGAGTTGTCGAGA, the TetR repression strength came out at 0.161.

For the sequence TCCCTGCAAGTGAATGAGA, the TetR repression strength came to 0.188.

On to TCCCGTGCAGTGGCTGAGA, for which the TetR repression strength turned out to be 0.225.

In turn, TCCCGGTTAGTATATGAGA gave a TetR repression strength of 0.0644.

TCCCGAACAGTCTGTGAGA: the TetR repression strength was determined as 0.125.

Take TCCCAGGTAGTCCCGGAGA: the TetR repression strength was 0.168.

Consider TCCCGGTCAGTCACTGAGA, for which the TetR repression strength stood at 0.312.

On to TCCCAAACAGTTACTGAGA, for which the TetR repression strength amounted to 0.276.

Sequence TCCCGAGGAGTGGACGAGA displayed a TetR repression strength of 0.186.

Sequence TCCCGATCAGTCCTCGAGA came in with a TetR repression strength of 0.233.

In the case of TCCCCCGGAGTGGACGAGA, the TetR repression strength was 0.193.

As for TCCCATGGAGTTAGGGAGA, the TetR repression strength is 0.223.

Sequence TCCCGTGTAGTCATAGAGA had a TetR repression strength of 0.165.

The sequence TCCCGAGCAGTTAGAGAGA displayed a TetR repression strength of 0.202.

Take TCCCGAGCAGTGCATGAGA: the TetR repression strength worked out at 0.223.

For TCCCATATAGTTATGGAGA, the TetR repression strength was 0.0304.

In turn, TCCCGGGCAGTCGTGGAGA had a TetR repression strength of 0.285.

The sequence TCCCCGGAAGTGCGTGAGA came in with a TetR repression strength of 0.147.

TCCCTTTCAGTTCCTGAGA: the TetR repression strength turned out to be 0.297.

Turning to TCCCCGGGAGTAGGTGAGA, the TetR repression strength amounted to 0.11.

TCCCGCGTAGTCAGTGAGA displayed a TetR repression strength of 0.0931.

As for TCCCCTGTAGTGTCTGAGA, the TetR repression strength is 0.148.

TCCCAAGTAGTTCTTGAGA showed a TetR repression strength of 0.0829.

In turn, TCCCGGTAAGTGAGAGAGA returned a TetR repression strength of 0.502.

For the sequence TCCCGGCGAGTGCCTGAGA, the TetR repression strength worked out at 0.0396.

Sequence TCCCTTGCAGTCAAAGAGA displayed a TetR repression strength of 0.0958.

On to TCCCGAGGAGTTTATGAGA, for which the TetR repression strength was found to be 0.374.

For TCCCGGGCAGTGGGAGAGA, the TetR repression strength amounted to 0.22.

Take TCCCGCGGAGTAGTGGAGA: the TetR repression strength was determined as 0.15.

TCCCGGGCAGTCGGGGAGA displayed a TetR repression strength of 0.284.

In turn, TCCCCCCAAGTGGTTGAGA registered a TetR repression strength of 0.155.

In turn, TCCCGGATAGTACTTGAGA displayed a TetR repression strength of 0.406.

As for TCCCTTAGAGTTTGTGAGA, the TetR repression strength was found to be 0.256.

Regarding TCCCTTGAAGTGTCTGAGA, the TetR repression strength was 0.616.

As to TCCCCACTAGTACGTGAGA, the TetR repression strength came to 0.363.

As to TCCCGCTTAGTCGTGGAGA, the TetR repression strength was found to be 0.209.

TCCCTGTTAGTGCAGGAGA came in with a TetR repression strength of 0.104.

TCCCTATAAGTCGTAGAGA had a TetR repression strength of 0.503.

The sequence TCCCCCGCAGTAAGCGAGA displayed a TetR repression strength of 0.153.

As for TCCCAGGGAGTGTAGGAGA, the TetR repression strength is 0.21.

For the sequence TCCCTAGGAGTTATTGAGA, the TetR repression strength stood at 0.218.

In turn, TCCCATACAGTTGGAGAGA showed a TetR repression strength of 0.37.

TCCCATTAAGTCCGCGAGA returned a TetR repression strength of 0.44.

Take TCCCAAGCAGTGTTGGAGA: the TetR repression strength amounted to 0.232.

TCCCGTGGAGTGTACGAGA yielded a TetR repression strength of 0.19.

TCCCATTGAGTGCGGGAGA: the TetR repression strength came out at 0.192.

As to TCCCCTAGAGTGGTAGAGA, the TetR repression strength worked out at 0.634.

TCCCGCAGAGTCGGTGAGA had a TetR repression strength of 0.133.

In turn, TCCCTGGGAGTACTCGAGA showed a TetR repression strength of 0.0787.

For the sequence TCCCCAGCAGTTTAGGAGA, the TetR repression strength was 0.207.

For the sequence TCCCCATCAGTCCTGGAGA, the TetR repression strength worked out at 0.144.

TCCCTGACAGTGCCAGAGA gave a TetR repression strength of 0.145.

As for TCCCAATGAGTCTAGGAGA, the TetR repression strength worked out at 0.23.

TCCCTGAAAGTATGGGAGA: the TetR repression strength was found to be 0.256.

For TCCCGTCTAGTGCACGAGA, the TetR repression strength stood at 0.218.

Regarding TCCCCGGGAGTGGTGGAGA, the TetR repression strength is 0.137.

Consider TCCCTGACAGTCGATGAGA, for which the TetR repression strength came out at 0.196.

Turning to TCCCTCACAGTGGCGGAGA, the TetR repression strength came to 0.218.

Turning to TCCCACACAGTTCGGGAGA, the TetR repression strength was 0.406.

Take TCCCGCCCAGTGTGAGAGA: the TetR repression strength worked out at 0.493.

TCCCAGTGAGTCGGGGAGA: the TetR repression strength was 0.295.

TCCCGTTGAGTGTGGGAGA returned a TetR repression strength of 0.187.

Consider TCCCGCGAAGTAGTCGAGA, for which the TetR repression strength is 0.196.

Sequence TCCCTATGAGTAAATGAGA yielded a TetR repression strength of 0.225.

For TCCCAGTGAGTATCGGAGA, the TetR repression strength came out at 0.189.

Take TCCCCAATAGTTTTTGAGA: the TetR repression strength is 0.382.

Turning to TCCCCAACAGTGTTGGAGA, the TetR repression strength stood at 0.292.

On to TCCCACTGAGTATTTGAGA, for which the TetR repression strength was 0.202.

In the case of TCCCGGGGAGTACAAGAGA, the TetR repression strength came to 0.3.

Regarding TCCCATCAAGTTACAGAGA, the TetR repression strength was 0.258.

In turn, TCCCAAGCAGTCCCCGAGA came in with a TetR repression strength of 0.321.

For TCCCCGAGAGTGCCCGAGA, the TetR repression strength came to 0.2.

As to TCCCCCACAGTAGAGGAGA, the TetR repression strength was 0.

With TCCCTTCGAGTTTTTGAGA, the TetR repression strength stood at 0.327.

In the case of TCCCGGTAAGTCAGAGAGA, the TetR repression strength came to 0.458.

Consider TCCCAGTAAGTGAGGGAGA, for which the TetR repression strength amounted to 0.25.

Consider TCCCAGCGAGTACAAGAGA, for which the TetR repression strength stood at 0.298.

Turning to TCCCAGTGAGTACGGGAGA, the TetR repression strength worked out at 0.211.

Consider TCCCCATCAGTGAGCGAGA, for which the TetR repression strength worked out at 0.19.

In the case of TCCCCAGGAGTACGAGAGA, the TetR repression strength is 0.325.

TCCCGCTTAGTTACGGAGA came in with a TetR repression strength of 1.2.

The sequence TCCCCTAGAGTGTTCGAGA gave a TetR repression strength of 0.361.

In the case of TCCCTGGGAGTGGGCGAGA, the TetR repression strength is 0.284.

Sequence TCCCAATCAGTCCGCGAGA displayed a TetR repression strength of 0.295.

In turn, TCCCATGTAGTGTCCGAGA came in with a TetR repression strength of 0.31.

Turning to TCCCAAGGAGTTCGGGAGA, the TetR repression strength stood at 0.324.

In the case of TCCCGTCAAGTCGGTGAGA, the TetR repression strength was 0.112.

On to TCCCCCGGAGTGAACGAGA, for which the TetR repression strength came to 0.145.

The sequence TCCCCGTCAGTAGGAGAGA gave a TetR repression strength of 0.0333.

The sequence TCCCCAAAAGTAGGGGAGA returned a TetR repression strength of 0.257.

TCCCCCGGAGTGGAAGAGA gave a TetR repression strength of 0.207.

For the sequence TCCCGTAAAGTTGTGGAGA, the TetR repression strength was 0.331.

In turn, TCCCAATCAGTGCTGGAGA had a TetR repression strength of 0.531.

TCCCGCTTAGTGATGGAGA had a TetR repression strength of 0.427.

TCCCCGCTAGTAAGCGAGA: the TetR repression strength is 0.263.

For TCCCCAATAGTCTGTGAGA, the TetR repression strength stood at 0.162.

For TCCCCTCTAGTCTGGGAGA, the TetR repression strength was 0.214.

With TCCCTTCTAGTAAGCGAGA, the TetR repression strength amounted to 0.289.

Consider TCCCGGGAAGTGAGGGAGA, for which the TetR repression strength was 0.211.

In turn, TCCCGTGGAGTGACCGAGA yielded a TetR repression strength of 0.119.

Sequence TCCCGTGTAGTGTAGGAGA yielded a TetR repression strength of 0.201.

The sequence TCCCGAGTAGTCTGAGAGA showed a TetR repression strength of 0.35.

Turning to TCCCGTACAGTAGTTGAGA, the TetR repression strength was 0.18.

TCCCCAATAGTTAACGAGA returned a TetR repression strength of 0.

TCCCGTAGAGTTCAGGAGA: the TetR repression strength came to 0.0439.
